These results are taken from article PMC7819943, “Rice protein-binding microarrays: a tool to detect cis-acting elements near promoter regions in rice”.

The list shows a part of the results.

The target of this test is T1, OsWOX13 (Oryza sativa, UniProt Q5QMM3 1-267).
T1 sequence: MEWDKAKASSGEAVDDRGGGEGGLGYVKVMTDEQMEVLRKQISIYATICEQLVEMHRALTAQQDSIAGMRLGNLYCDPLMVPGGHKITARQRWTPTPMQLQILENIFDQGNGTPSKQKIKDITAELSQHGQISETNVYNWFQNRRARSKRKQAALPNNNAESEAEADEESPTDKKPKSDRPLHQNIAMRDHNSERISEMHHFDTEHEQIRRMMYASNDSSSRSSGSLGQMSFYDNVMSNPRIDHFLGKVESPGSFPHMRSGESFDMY
The test is described as follows: protein-binding microarray (RPBM); PBS, 2% BSA, 51.3 ng/ul salmon testes DNA, 50 uM zinc acetate, 200 nM TF, 25 C, 1 h; high values mean tight binding. The conditions noted are these: protein: recombinant; tags: N-terminal polyhistidine and DsRed monomer fusion (pET32a); label: CyDye5-dUTP incorporated in the synthesized complementary strand; 3' TTTTT single-stranded linker to array surface; dsDNA, one strand shown. Summed up: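 Using Ni–NTA, transcription factors fused N-terminally to polyhistidine and DsRed were purified after expression in E. coli BL21-CodonPlus. These were incubated at 200 nM with a blocked, double-stranded custom Agilent array for 1 h at 25 °C in a buffer containing 50 µM zinc acetate, and the array was washed. The binding signal is per-feature fluorescence intensity (arbitrary units) on an Axon 4000B scanner.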
For the sequence “ATAATTAAAACTCAATTAAACATACCCTAATAACTTTCTTCGGAGTCACCTAGTGCAG”, the binding signal is 6130 fluorescence intensity (a.u.).

As for “ATTTTAATTTGCACTGTTGGGATTTATGACTTTTGTTATACGGAGTCACCTAGTGCAG”, the binding signal is 18300 fluorescence intensity (a.u.). In the case of “TGCACCTTACCTTAATTAGATTTATCACTAACATGTGAGTCGGAGTCACCTAGTGCAG”, the binding signal is 7800 fluorescence intensity (a.u.).

For “GAACGAATATATTCGTAATTGATATTTTGCAATGGCTAAACGGAGTCACCTAGTGCAG”, the binding signal is 10700 fluorescence intensity (a.u.). On to “TTTAAAATTTAACCCTAAATTACATTTACTCTAGACTCTACGGAGTCACCTAGTGCAG”, for which the binding signal is 8730 fluorescence intensity (a.u.).

As for “CAGTTGATTAGGGTCTATACGCATCGAAAATATTACTTTCCGGAGTCACCTAGTGCAG”, the binding signal is 27900 fluorescence intensity (a.u.). As to “CTAGTTGACAGTTGACTCGTTAGTAGCTGACAGCGGGCCCCGGAGTCACCTAGTGCAG”, the binding signal is 3450 fluorescence intensity (a.u.). The result for “AAAATGTCAATTAAAATGAAACTGGAGGGAGTACTAGTACCGGAGTCACCTAGTGCAG” reads 19500 fluorescence intensity (a.u.).

In the case of “ACTGTCGCTAATTGGTACAGTAGTTACCAATTCAGAATGGCGGAGTCACCTAGTGCAG”, the binding signal was 27000 fluorescence intensity (a.u.). For “ATTGATAAATTGGTTATTTTGTTGGCTATTTAATTGATTTCGGAGTCACCTAGTGCAG”, the binding signal is 21400 fluorescence intensity (a.u.).

Regarding “AATGTTAATTAAACTGCTGATAACTAGCGAAGGAATTGAACGGAGTCACCTAGTGCAG”, the binding signal is 31600 fluorescence intensity (a.u.). As for “ACAAACAAATTGAAATAAAATATAACTCCACAGCCACTGTCGGAGTCACCTAGTGCAG”, the binding signal was 19600 fluorescence intensity (a.u.).

On to “CATAATTAGCATACTATAACATCGATAGACACGTTCTGACCGGAGTCACCTAGTGCAG”, for which the binding signal was 33400 fluorescence intensity (a.u.). As for “GTGGGATTAGAATTGAGAAATGAATGAAAGGTTATGATTACGGAGTCACCTAGTGCAG”, the binding signal was 12500 fluorescence intensity (a.u.). For the sequence “CGGATTAATTATGTTTAATAAATTCATCTCGCAATTTCCTCGGAGTCACCTAGTGCAG”, the binding signal was 27800 fluorescence intensity (a.u.). The result for “CTCGACAGTTACCTCTTAATTTAGTGGTGTACGTCATATACGGAGTCACCTAGTGCAG” reads 5630 fluorescence intensity (a.u.); that for “TTATCTTGATAATCATTATTAAGTCCCTCATTGTAAGTTCCGGAGTCACCTAGTGCAG”, 4240 fluorescence intensity (a.u.). In the case of “ATTAAACTCGGCCTTAATTTTCGTGAAAATCACGTGTTTTCGGAGTCACCTAGTGCAG”, the binding signal is 5920 fluorescence intensity (a.u.). On to “ATCCATCATATCCAATCAAGAAAATGGAACACACAAGGAACGGAGTCACCTAGTGCAG”, for which the binding signal was 21100 fluorescence intensity (a.u.). As to “GTGATGGATATAACAAATCTATTTATAACAACATTGTGATCGGAGTCACCTAGTGCAG”, the binding signal is 10700 fluorescence intensity (a.u.).

Consider “AACAATCAATCAATGCTGTAGTATTTACCAATGTCGAATTCGGAGTCACCTAGTGCAG”, for which the binding signal was 21800 fluorescence intensity (a.u.). As for “AAAGTTGATTTTCTTTTGGGACGAAGGGTATGTAGTCAACCGGAGTCACCTAGTGCAG”, the binding signal is 10100 fluorescence intensity (a.u.). For “CTCACAAACAGGTCAATCATACCAACAAGGAATGCCCTCACGGAGTCACCTAGTGCAG”, the binding signal was 12400 fluorescence intensity (a.u.). In the case of “TGTGTGAATTGACTATTAGATTTAGCTATATATAAATTAACGGAGTCACCTAGTGCAG”, the binding signal is 4190 fluorescence intensity (a.u.).

Take “ACATAACCGCGCAAATTTAGTTTATTCGTTACTCCCTCCGCGGAGTCACCTAGTGCAG”: the binding signal is 7170 fluorescence intensity (a.u.). Consider “TTAAATCACATGACTTTCAGTTATTGACATATGGACCCTCCGGAGTCACCTAGTGCAG”, for which the binding signal is 9300 fluorescence intensity (a.u.). As for “ATTTTGAAATTTTAATTTTAAAATTACATTTTGGGACAAACGGAGTCACCTAGTGCAG”, the binding signal was 8130 fluorescence intensity (a.u.). As to “TGTTAAATTGTATCAAGCATGTGCTGGAGCTGTAAAATTGCGGAGTCACCTAGTGCAG”, the binding signal is 5150 fluorescence intensity (a.u.).

Consider “TTTTAATATAACAAATTTGGATAACTAAGATGTGCCACATCGGAGTCACCTAGTGCAG”, for which the binding signal was 3750 fluorescence intensity (a.u.).

As for “GCTCTCTTATGATTTGTTATAACTTAAGTTTTACTGGAACCGGAGTCACCTAGTGCAG”, the binding signal is 9670 fluorescence intensity (a.u.).

For the sequence “CACACTGTGATTGAGATTATACATGTAGACATATTAAACACGGAGTCACCTAGTGCAG”, the binding signal was 16700 fluorescence intensity (a.u.). Regarding “CAATTTGTAATAAATTAGTTAATTACAGTAGCATTTGGAACGGAGTCACCTAGTGCAG”, the binding signal was 19200 fluorescence intensity (a.u.). Turning to “ACCTGATGGACAAGCTTTCCATCTCTTTAGCATTAATCCTCGGAGTCACCTAGTGCAG”, the binding signal is 17400 fluorescence intensity (a.u.). On to “TCAGCTAACTTTCTATAATTGGCTCAGCCCTAATCTACAACGGAGTCACCTAGTGCAG”, for which the binding signal is 10200 fluorescence intensity (a.u.). For “CAAATTCATTCTAATTTAATCAAAATTTTAAATAATTTCGCGGAGTCACCTAGTGCAG”, the binding signal is 13300 fluorescence intensity (a.u.). Consider “TGATAATTTAATTTGAAGACACCATCCATTGAATACATAGCGGAGTCACCTAGTGCAG”, for which the binding signal was 37100 fluorescence intensity (a.u.). For “CACCATTGAGTTATAATCTAATCACGTATAATACTTTTGACGGAGTCACCTAGTGCAG”, the binding signal was 4320 fluorescence intensity (a.u.). For “GCCCTTAGATCATTGTGATTGGCTGGATTACATGGACCCGCGGAGTCACCTAGTGCAG” the value was 19600 fluorescence intensity (a.u.). As for “TTTACAAAGCTTAATTAAGTTTCATCAAATCGTATAAAGTCGGAGTCACCTAGTGCAG”, the binding signal is 6950 fluorescence intensity (a.u.). For the sequence “TTAGACTAATACTTAGTTAATCACGCTTGGATTTGTCTACCGGAGTCACCTAGTGCAG”, the binding signal was 3390 fluorescence intensity (a.u.). For “ATTTATGTAATTAGTTTTGTAAGTAGTCTATATTTAATACCGGAGTCACCTAGTGCAG”, the binding signal was 3780 fluorescence intensity (a.u.). For “TGCTTAAATTACTTTGGATAATAAAGTAAGTCACAAATAACGGAGTCACCTAGTGCAG”, the binding signal was 3730 fluorescence intensity (a.u.).
